# Positions count from the first letter of the chain named. This is one part of the list.
# T1: RBFOX1 RRM (Homo sapiens, UniProt Q9NWB1 109-208)
# T1 sequence: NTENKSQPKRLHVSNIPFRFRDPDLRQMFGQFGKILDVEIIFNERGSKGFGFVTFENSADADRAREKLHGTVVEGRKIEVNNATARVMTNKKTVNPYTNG
# B1: CCAAAUG (DNA:RNA)
# RNA: GGGAGACCGGAAUUCAGAUUGUCCCCAAAUGUUAAAUCCCGUCGUAGCCACCA
# DNA 1: CAATCTGAATTCCGGTCTCCC
# DNA 2: TGGTGGCTACGACGGGATT
# B2: AAUCUCG (DNA:RNA)
# RNA: B1 RNA with C25A, C26A, A27U, A28C, A29U, U30C
# DNA 1: CAATCTGAATTCCGGTCTCCC
# DNA 2: TGGTGGCTACGACGGGATT
# B3: UCUCUAU (DNA:RNA)
# RNA: B1 RNA with C25U, A27U, A28C, A29U, U30A, G31U
# DNA 1: CAATCTGAATTCCGGTCTCCC
# DNA 2: TGGTGGCTACGACGGGATT
# B4: UGCCGUC (DNA:RNA)
# RNA: B1 RNA with C25U, C26G, A27C, A28C, A29G, G31C
# DNA 1: CAATCTGAATTCCGGTCTCCC
# DNA 2: TGGTGGCTACGACGGGATT
# B5: ACUUUUG (DNA:RNA)
# RNA: B1 RNA with C25A, A27U, A28U, A29U
# DNA 1: CAATCTGAATTCCGGTCTCCC
# DNA 2: TGGTGGCTACGACGGGATT
# B6: GACGCCC (DNA:RNA)
# RNA: GGGAGACCGGAAUUCAGAUUGUCCGACGCCCUUAAAUCCCGUCGUAGCCACCA
# DNA 1: CAATCTGAATTCCGGTCTCCC
# DNA 2: TGGTGGCTACGACGGGATT
# B7: GUUUCGA (DNA:RNA)
# RNA: B6 RNA with A26U, C27U, G28U, C30G, C31A
# DNA 1: CAATCTGAATTCCGGTCTCCC
# DNA 2: TGGTGGCTACGACGGGATT
# B8: UAUAAUG (DNA:RNA)
# RNA: B1 RNA with C25U, C26A, A27U
# DNA 1: CAATCTGAATTCCGGTCTCCC
# DNA 2: TGGTGGCTACGACGGGATT
# B9: AUGAGUC (DNA:RNA)
# RNA: B1 RNA with C25A, C26U, A27G, A29G, G31C
# DNA 1: CAATCTGAATTCCGGTCTCCC
# DNA 2: TGGTGGCTACGACGGGATT
# B10: CGAGCUC (DNA:RNA)
# RNA: B1 RNA with C26G, A28G, A29C, G31C
# DNA 1: CAATCTGAATTCCGGTCTCCC
# DNA 2: TGGTGGCTACGACGGGATT
# B11: CUGGCUU (DNA:RNA)
# RNA: B1 RNA with C26U, A27G, A28G, A29C, G31U
# DNA 1: CAATCTGAATTCCGGTCTCCC
# DNA 2: TGGTGGCTACGACGGGATT
# B12: UGCCUUU (DNA:RNA)
# RNA: B1 RNA with C25U, C26G, A27C, A28C, A29U, G31U
# DNA 1: CAATCTGAATTCCGGTCTCCC
# DNA 2: TGGTGGCTACGACGGGATT
# B13: AAAUAAA (DNA:RNA)
# RNA: B1 RNA with C25A, C26A, A28U, U30A, G31A
# DNA 1: CAATCTGAATTCCGGTCTCCC
# DNA 2: TGGTGGCTACGACGGGATT
# B14: GCCAGCC (DNA:RNA)
# RNA: B6 RNA with A26C, G28A, C29G
# DNA 1: CAATCTGAATTCCGGTCTCCC
# DNA 2: TGGTGGCTACGACGGGATT
# B15: CACGCCA (DNA:RNA)
# RNA: B6 RNA with G25C, C31A
# DNA 1: CAATCTGAATTCCGGTCTCCC
# DNA 2: TGGTGGCTACGACGGGATT
# B16: UAGGGAC (DNA:RNA)
# RNA: B6 RNA with G25U, C27G, C29G, C30A
# DNA 1: CAATCTGAATTCCGGTCTCCC
# DNA 2: TGGTGGCTACGACGGGATT
# B17: AGACCCU (DNA:RNA)
# RNA: B6 RNA with G25A, A26G, C27A, G28C, C31U
# DNA 1: CAATCTGAATTCCGGTCTCCC
# DNA 2: TGGTGGCTACGACGGGATT
# B18: CAAGACC (DNA:RNA)
# RNA: B6 RNA with G25C, C27A, C29A
# DNA 1: CAATCTGAATTCCGGTCTCCC
# DNA 2: TGGTGGCTACGACGGGATT
# B19: CACUCCA (DNA:RNA)
# RNA: B6 RNA with G25C, G28U, C31A
# DNA 1: CAATCTGAATTCCGGTCTCCC
# DNA 2: TGGTGGCTACGACGGGATT
# What was measured:
# RBFOX1 RRM [1] = biological target: T1, RBFOX1 RRM; experiment: EMSA; HiTS-Eq, 1 nM pool, 10 min; buffer printed only for the single-RNA assays: 10 mM Tris pH 7.5, 150 mM NaCl, 3.4 mM EDTA, 0.001% NP-40, 30 C; conditions: tags: His6 N-terminal (pET28a); label: 5' 32P
# In short: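 Purified RbFox RRM (wild type or mutant) was equilibrated for 10 min in 50 µL with 1 nM of a 5′-radiolabelled pool of RNA with 7 randomized nucleotides, its flanks annealed to DNA oligonucleotides, across increasing protein concentrations. Free RNA was separated by 8% native PAGE, excised, reverse-transcribed, PCR-barcoded and sequenced on an Illumina HiSeq 2500. Relative association constants came from read-count changes of each variant against the control reaction, normalised to the cognate motif.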
# RBFOX1 RRM [2] = biological target: T1, RBFOX1 RRM; experiment: competition; 10 mM Tris pH 7.5, 150 mM NaCl, 3.4 mM EDTA, 0.001% NP-40, 30 C; conditions: tags: His6 N-terminal (pET28a)
binder,measurement,setting,value
B1,binding signal,RBFOX1 RRM [1],0.00451 KA relative to UGCAUGU
B2,binding signal,RBFOX1 RRM [1],0.007 KA relative to UGCAUGU
B3,binding signal,RBFOX1 RRM [1],0.00378 KA relative to UGCAUGU
B4,binding signal,RBFOX1 RRM [1],0.0192 KA relative to UGCAUGU
B5,binding signal,RBFOX1 RRM [1],0.0162 KA relative to UGCAUGU
B6,binding signal,RBFOX1 RRM [1],0.0113 KA relative to UGCAUGU
B7,binding signal,RBFOX1 RRM [1],0.0203 KA relative to UGCAUGU
B8,binding signal,RBFOX1 RRM [1],0.0111 KA relative to UGCAUGU
B9,binding signal,RBFOX1 RRM [1],0.0125 KA relative to UGCAUGU
B10,binding signal,RBFOX1 RRM [1],0.0118 KA relative to UGCAUGU
B11,binding signal,RBFOX1 RRM [1],0.0169 KA relative to UGCAUGU
B12,binding signal,RBFOX1 RRM [1],0.0166 KA relative to UGCAUGU
B13,binding signal,RBFOX1 RRM [1],0.000652 KA relative to UGCAUGU
B14,binding signal,RBFOX1 RRM [1],0.0113 KA relative to UGCAUGU
B15,binding signal,RBFOX1 RRM [1],0.00204 KA relative to UGCAUGU
B16,binding signal,RBFOX1 RRM [1],0.00353 KA relative to UGCAUGU
UACAUGU (ssRNA),binding signal,RBFOX1 RRM [2],341 nM
B17,binding signal,RBFOX1 RRM [1],0.00196 KA relative to UGCAUGU
B18,binding signal,RBFOX1 RRM [1],0.00212 KA relative to UGCAUGU
B19,binding signal,RBFOX1 RRM [1],0.0014 KA relative to UGCAUGU

# From article PMC9911399, “Two distinct binding modes provide the RNA-binding protein RbFox with extraordinary sequence specificity”
